Data on 42 molecules can be found in ChEMBL document CHEMBL4888484, “Replenishing the malaria drug discovery pipeline: Screening and hit evaluation of the MMV Hit Generation Library 1 (HGL1) against asexual blood stage Plasmodium falciparum ,using a nano luciferase reporter read-out” (2022).

Hit rate of the full screen: of about 150,000 compounds, about 540 (0.36%) showed an effect of 50% or more. This is one part of the list.

For the assay, the system named is Plasmodium falciparum. Briefly: Primary screen in NF54 nanoGlo assay, in single point, at 2uM, 72h; a lower Z score goes with more inhibition. The settings on record: timepoint 72 hour. Format: functional, Erythrocyte.
For the molecule `O=C(NCc1ccc2c(c1)CCCC2)[C@@H]1CNCCO1`, the “% Inhibition” value is reported as -7% and the Z score is 1.1.
Consider `COc1cc(C)ccc1CNC1CS(=O)(=O)C1`, for which the “% Inhibition” value is listed as 0% and the Z score turned out to be 0.06.
The corresponding values for `CCCc1cc(C(=O)NS(=O)(=O)CC2CC2)[nH]n1` are 25% and -2.86.
Consider `O=C(CCS(=O)(=O)c1ccccc1)N1CC[C@H](Oc2cc(C(F)(F)F)ccn2)C1`, for which the “% Inhibition” value is given as -6% and the Z score is given as 1.09.
The corresponding values for `O=S(=O)(N[C@H](c1c[nH]c2ccccc12)C(Cl)(Cl)Cl)c1ccc(Cl)cc1` are -5% and 0.64.
The matching figures for `Cc1nc(CCNC(=O)C[C@H]2C(=O)NCCN2Cc2ccccc2)no1`: -4% and 0.78.
The corresponding values for `CCc1nc(C)cc(N(C)CCn2nc(C)cc2C)n1` are -18% and 1.72.
Regarding `OC[C@H](Cc1c[nH]c2ccccc12)Nc1ccc2nnnn2n1`, the “% Inhibition” value is reported as -4% and the Z score turned out to be 0.68.
The matching figures for `O=C(O)c1cc(-c2cccc3ccnn23)cc(S(=O)(=O)N2CCCCCC2)c1`: -3% and 0.51.
The corresponding values for `Cc1cccc2c1C(=O)N(CCc1ccccc1)[C@@H](c1ccc(N3CCN(C)CC3)cc1)N2` are 4% and -0.59.
Take `CCOc1ccc(NC(=O)C2CCN(S(=O)(=O)c3ccc(-c4noc(C5CC5)n4)cc3)CC2)cc1`: the “% Inhibition” value is -24% and the Z score came to 2.9.
The matching figures for `COCC(=O)Nc1cc2nc(-c3ccccc3)oc2nc1C`: -16% and 2.1.
The corresponding values for `N[C@H]1C[C@H](c2cc(NCCCc3cccnc3)nc(C3CC3)n2)C1` are 71% and -7.09.
The matching figures for `CC1(C)C(c2ccccn2)=[N+]([O-])C(C)(C)N1O`: -7% and 1.39.
In the case of `CN(C[C@H]1CCCCO1)C(=O)CCc1ccc(=O)[nH]n1`, the “% Inhibition” value is -2% and the Z score was 0.34.
The matching figures for `COc1cccc(C(=O)N2CCC(N3C[C@H](O)C[C@H]3C(=O)N3CCc4ccccc4C3)CC2)c1`: -10% and 1.29.
The corresponding values for `COc1ccc2ncc(OCC3(C)COC3)nc2c1` are -6% and 1.05.
For the molecule `CCC(NC(=O)CC1CCCCO1)(C(N)=O)C(C)C` (centres undefined), the “% Inhibition” value is recorded as -9% and the Z score is on record as 1.03.
Regarding `Cc1nc(OCC(=O)NCc2cccnc2)c2c(-c3ccc(F)cc3)noc2n1`, the “% Inhibition” value is listed as 0% and the Z score is -0.04.
The corresponding values for `OC1CC2CCC(C1)N2Cc1ccn(-c2ccccc2)n1` (centres undefined) are 32% and -3.67.
The matching figures for `CCCC(=O)Nc1ccc(N(C)C)nc1`: -5% and 0.43.
The corresponding values for `CN(CCC(=O)N1CCOCC1)Cc1cccc(C#N)c1` are -11% and 1.51.
In the case of `O=C(O)C1(Oc2cccc(F)c2)CCN(CCCc2ccccc2)CC1`, the “% Inhibition” value is listed as -2% and the Z score is on record as 0.43.
Consider `CCn1cc(S(=O)(=O)Nc2nnc(CC3CCCC3)s2)cn1`, for which the “% Inhibition” value was found to be 30% and the Z score is -3.42.
As to `NCC1CCCN(C(=O)[C@H]2C[C@@H]2c2ccccc2C(F)(F)F)C1` (some centres undefined), the “% Inhibition” value is -2% and the Z score is recorded as 0.43.
The matching figures for `CC1(C)C[C@@](C)(c2ccccc2)c2ccccc2N1CC(=O)c1ccccc1`: 7% and -0.85.
On to `CC(C)c1nc(CCNC(=O)N(C)Cc2cscn2)no1`, for which the “% Inhibition” value is listed as -4% and the Z score worked out at 0.59.
Consider `COc1ccc(C(=O)N(CCN2CCCC2)C2CCOCC2)c(C)c1`, for which the “% Inhibition” value is reported as -12% and the Z score is given as 2.01.
The corresponding values for `CNC(=O)Cc1noc(C2(c3ccccc3)CCC2)n1` are 8% and -1.15.
Consider `c1cc(-c2ccn[nH]2)cc(-c2nccs2)c1`, for which the “% Inhibition” value is given as -7% and the Z score came to 0.94.
Regarding `Cc1cccc(-c2nc3ccc(C(=O)NCc4ccc(F)cc4)cc3nc2-c2cccc(C)c2)c1`, the “% Inhibition” value came out at 11% and the Z score is -1.91.
The matching figures for `CC1CN(C(=O)c2cc3n(n2)[C@H](C(F)(F)F)C[C@H](c2ccco2)N3)CC(C)O1` (some centres undefined): -4% and 0.59.
The matching figures for `CN(CCO)CC(=O)NCCc1cccs1`: -3% and 0.54.
On to `COCCc1nncn1C1CCN(C(=O)c2cc(C)ccc2C)CC1`, for which the “% Inhibition” value is recorded as -2% and the Z score is listed as 0.37.
The corresponding values for `COC1CCN(S(=O)(=O)N2CCOC[C@H]2c2cccc(F)c2)CC1` are -14% and 1.31.
As for `CC(CN1CCN2C(=O)NCC2C1)c1cccc(Br)c1` (centres undefined), the “% Inhibition” value is -10% and the Z score was 1.04.
The corresponding values for `CN(C)S(=O)(=O)N1C[C@H]2CC[C@@H](C1)N(Cc1cccc(C#N)c1)C2` are -16% and 1.88.
Consider `O=C(c1cccc(CO)n1)N1CCC(c2cc(N3CCCC3)ncn2)CC1`, for which the “% Inhibition” value is listed as -12% and the Z score is on record as 2.42.
In the case of `CCn1nc(C)cc1C(=O)Nc1cc(O[C@@H](C)c2ccccc2)ccn1`, the “% Inhibition” value is -3% and the Z score came out at 0.55.
The matching figures for `COc1cc(N2C(=O)CN(Cc3ccccc3O)C2=O)ccn1`: -2% and 0.25.
For the molecule `COC(=O)Nc1cccc(N[C@@H](C)C2CCOCC2)c1`, the “% Inhibition” value is recorded as -4% and the Z score was 0.33.
Consider `Cc1cc2c(cc1C)N(CC(=O)N1CCC(Cc3ccccc3)CC1)C(=O)CC(c1cccs1)=N2`, for which the “% Inhibition” value was -11% and the Z score is recorded as 1.22.
